Reference: PubChem BioAssay AID504339 (National Center for Advancing Translational Sciences (NCATS), 2011)
About 17,000 (4.4%) of roughly 390,000 compounds were called active. This list was built around the results that the source calls inconclusive (neither active nor inactive); the mix of calls is not that of the screen. The call rests on the fitted dose curve; in most records, active means well fitted inhibition curve with a large enough effect; inconclusive means small, poorly fitted or top-dose-only effect; inactive means no such curve, though single readings can be large or run the other way. Potencies of inconclusive entries are doubtful fits and often do not repeat.

Target: Lysine-specific demethylase 4A (Homo sapiens) (UniProt O75164)
Sequence of UniProt O75164 (O75164 whole entry, looked up, the tested form may be a part): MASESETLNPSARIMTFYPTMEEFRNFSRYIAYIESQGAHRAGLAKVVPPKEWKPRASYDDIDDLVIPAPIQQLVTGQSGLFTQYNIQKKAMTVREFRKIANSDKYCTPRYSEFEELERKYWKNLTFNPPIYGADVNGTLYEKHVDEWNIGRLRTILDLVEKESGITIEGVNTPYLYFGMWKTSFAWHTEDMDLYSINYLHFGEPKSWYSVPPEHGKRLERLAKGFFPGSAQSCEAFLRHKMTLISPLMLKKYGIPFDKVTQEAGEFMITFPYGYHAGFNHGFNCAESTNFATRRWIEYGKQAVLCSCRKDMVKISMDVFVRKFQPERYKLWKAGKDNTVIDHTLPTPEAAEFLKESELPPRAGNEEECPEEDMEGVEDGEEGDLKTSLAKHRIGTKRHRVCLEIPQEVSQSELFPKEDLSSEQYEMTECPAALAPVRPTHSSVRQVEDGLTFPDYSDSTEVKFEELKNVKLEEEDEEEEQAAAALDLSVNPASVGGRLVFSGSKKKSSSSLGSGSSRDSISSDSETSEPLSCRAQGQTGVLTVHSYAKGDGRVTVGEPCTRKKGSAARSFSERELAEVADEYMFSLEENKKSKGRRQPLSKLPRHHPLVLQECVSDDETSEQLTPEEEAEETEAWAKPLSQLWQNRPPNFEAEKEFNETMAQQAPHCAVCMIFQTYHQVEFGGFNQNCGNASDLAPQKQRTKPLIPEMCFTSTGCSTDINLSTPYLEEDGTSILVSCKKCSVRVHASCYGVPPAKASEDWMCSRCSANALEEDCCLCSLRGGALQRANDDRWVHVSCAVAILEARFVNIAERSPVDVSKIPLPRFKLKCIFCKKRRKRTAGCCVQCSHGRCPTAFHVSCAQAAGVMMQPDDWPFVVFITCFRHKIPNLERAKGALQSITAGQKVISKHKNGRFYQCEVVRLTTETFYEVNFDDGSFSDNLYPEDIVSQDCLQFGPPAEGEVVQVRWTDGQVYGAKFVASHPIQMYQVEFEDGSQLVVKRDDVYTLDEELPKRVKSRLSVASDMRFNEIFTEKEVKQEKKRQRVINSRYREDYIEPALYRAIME
Test: qHTS Assay for Inhibitors of JMJD2A-Tudor Domain; further: nearly all actives have a fitted effect of over 50% in size
Conditions: AlphaScreen JMJD2A-Tudor / H3K4me3 peptide binding; activity change, negative = inhibition: at 114 µM (top of the series)
On the % scale 0 is the no-effect control and ±100 the full control effect; potency means the concentration at half of the fitted maximal effect; tags describe the fitted curve by direction and shape.

| Structure (SMILES) | activity change, negative = inhibition | Potency |
| --- | --- | --- |
| COc1cc(OC)c(NC(=O)CSc2nc3ccncc3[nH]2)cc1Cl | inactive: -22.8% | – |
| Cc1ccc(N(CC(=O)NCc2ccc(F)cc2)C(=O)CCC(=O)Nc2ccccn2)cc1C | – | active: 79.4 µM |
| CCOC(=O)C1=C(C)N(C)C(=O)C1CC(=O)O (configuration not stated) | – | active: 56.2 µM |
| CC(=O)Nc1cccc(NC(=O)COc2ccc3c(c2)CCC3)c1 | inactive: -13.5% | – |
| COc1ccc2c(c1)C(=O)/C(=C/C=C/c1ccccc1)CC2 | inactive: -28.2% [at 57.1 µM] | – |
| Cc1cnc(NC(=O)Cc2ccc(Br)cc2)s1 | inactive: -9.72% | – |
| Cc1ccc(C2CC(c3cccs3)=NN2C(=O)c2ccco2)o1 (configuration not stated) | – | inconclusive: 31.6 µM [inhibitor, single point] |
| CCN(CC)c1ccc(C=C2C(=O)OC3(CCCCC3)OC2=O)cc1 | inactive: -31.2% | – |
| CC(=O)c1ccc(OCc2ccc(C(=O)c3ccccc3)cc2)cc1 | inactive: 43.2% | – |
| CCN(CCCNC(=O)c1ccc(Sc2ccc(Cl)cc2)c(NC(C)=O)c1)c1cccc(C)c1 | – | inconclusive: 20 µM [inhibitor, full curve] |
| Cc1ccc(Cc2c[nH]c(=S)s2)cc1 | – | inconclusive: 44.7 µM [inhibitor, partial curve, poor fit] |
| N#Cc1cc2c(nc1SCc1ccncc1)CCC2 | – | active: 22.4 µM |
| CSc1cccc(NC(=O)c2ccc3c(c2)CCCN3S(C)(=O)=O)c1 | inactive: -29.9% | – |
| CC(=O)N[C@@H](CS)C(=O)O | – | inconclusive: 89.1 µM [inhibitor, single point] |
| COc1ccc(C)cc1NCC(=O)Nc1ccc(C(C)(C)C)cc1 | – | inconclusive: 39.8 µM [inhibitor, single point] |
| CCOC(=O)c1sc(NC(=O)CN2CCN(c3ccccc3)CC2)nc1C | – | inconclusive: 35.5 µM [inhibitor, full curve, poor fit] |
| COc1ccc(/C=C2\SC(=O)N(CC(=O)NNC(=O)c3ccccc3O)C2=O)cc1 | – | inconclusive: 89.1 µM [inhibitor, single point] |
| CCN(CC)C(=O)[C@H]1CC(CC(=O)NCC23CC4CC(CC(C4)C2)C3)C(=O)N2CCc3c([nH]c4ccccc34)[C@]12C (some centres not stated) | – | inconclusive: 28.2 µM [inhibitor, full curve, poor fit] |
| Cc1ccc(CNC(=O)CN2C(=O)COc3ccc(S(=O)(=O)N4CCC(C)CC4)cc32)cc1 | inactive: -4.97% | – |
| COc1ccccc1-n1c(-c2ccccc2)n[nH]c1=S | – | active: 2.82 µM |
| CCN1C(=O)c2ccccc2S(=O)(=O)c2ccc(C(=O)NCc3ccc(F)cc3)cc21 | inactive: -16.2% | – |
| CCOc1cc2[nH]c(=O)n(CCCN3CCN(c4ccc(OC)cc4)CC3)c(=O)c2cc1OCC | – | inconclusive: 56.2 µM [inhibitor, partial curve] |
| CCN(CC)c1cccc(OC2=NS(=O)(=O)c3ccccc32)c1 | – | active: 63.1 µM |
| O=C1NC(=S)N(C(=O)c2ccc(F)cc2)/C1=C/c1ccccc1 | – | active: 39.8 µM |

| Structure (SMILES) | activity change, negative = inhibition | Potency |
| --- | --- | --- |
| CCC1=[N+](C)CCn2c(C)ccc21 | – | inconclusive: 79.4 µM [inhibitor, single point] |
| CN1CCN(c2nc(-c3ccccc3)nc(-c3ccc(F)cc3)c2C#N)CC1 | – | inconclusive: 15.8 µM [inhibitor, full curve, poor fit] |
| CCCCCCn1c(N2CCN(c3ccccc3)CC2)nc2c1c(=O)n(C)c(=O)n2C | – | inconclusive: 39.8 µM [inhibitor, full curve] |
| CC1CC(=O)c2c(cc3c(-c4c(O)cc(O)c5c(O)c6c(cc45)OC(C)CC6=O)c(O)cc(O)c3c2O)O1 (configuration not stated) | – | active: 44.7 µM |
| COc1cc(/C=C2\N=C(C)OC2=O)cc(OC)c1OC | inactive: -8.85% | – |
| CC(C)OCCCNC(=O)c1ccc2c(=O)n(Cc3ccc4c(c3)OCO4)c(=S)[nH]c2c1 | – | inconclusive: 70.8 µM [inhibitor, partial curve] |
| COc1ccc(CNC(=O)CN(C)S(=O)(=O)c2ccc3[nH]c4c(c3c2)CCCC4)cc1 | – | inconclusive: 22.4 µM [inhibitor, full curve] |
| O=C(COC(=O)c1cc(=O)[nH]c2ccccc12)Nc1nc(-c2ccc(F)cc2)cs1 | inactive: -17.6% [at 11.4 µM] | – |
| COC(=O)c1ccc(OCC2c3cc(OC)c(OC)cc3CCN2C(=O)Cc2ccc(OC)c(OC)c2)cc1 (configuration not stated) | – | inconclusive: 89.1 µM [inhibitor, partial curve] |
| Cc1cc(C)c(NC(=O)c2cc(S(=O)(=O)N3CCOCC3)ccc2F)c(C)c1 | – | inconclusive: 22.4 µM [inhibitor, full curve, poor fit] |
| COc1ccc(/C=N/NC(=S)NC2CCS(=O)(=O)C2)cc1OC (configuration not stated) | inactive: -7.87% | – |
| CN(C(=O)CC1C(=O)NCCN1Cc1ccccc1C(F)(F)F)C1CCOCC1 (configuration not stated) | – | inconclusive: 28.2 µM [inhibitor, partial curve] |
| CC1=NN(c2ccccc2)C(=O)/C1=C/c1cn(C)c2ccccc12 | – | active: 6.31 µM |
| NNC(=S)NCc1cccnc1 | – | inconclusive: 2.82 µM [inhibitor, full curve] |
| O=C(c1cccc(Cl)c1)N1CCN(Cc2ccncc2)CC1 | – | inconclusive: 1.12 µM [inhibitor, full curve, poor fit] |
| CCOC(=O)c1c(C)[nH]c(N=Nc2ccc(OC)cc2)c1C | – | active: 56.2 µM |
| CCc1ccc(NC(=O)C2CCCN2S(=O)(=O)c2cccc3nsnc23)cc1 (configuration not stated) | inactive: -29.6% | – |
| COc1ccc(OCCCn2c(C)nc3cc(C)c(C)cc32)cc1 | – | inconclusive: 50.1 µM [inhibitor, single point] |
| CNC(=O)c1cc(Nc2nnc(C)c3ccccc23)ccc1OC | – | inconclusive: 89.1 µM [inhibitor, single point] |
| O=C(COc1ccc(Cl)cc1Cl)N1CCCC1 | inactive: -11.6% | – |
| COc1ccc(NC(=O)c2cc([N+](=O)[O-])ccc2N2CCCCC2)cc1OC | – | inconclusive: 44.7 µM [inhibitor, partial curve] |
| c1cncc(CNC2CCCc3ccccc32)c1 (configuration not stated) | – | inconclusive: 28.2 µM [inhibitor, full curve] |
| CCC(C)c1ccccc1NC(=O)COC(=O)c1ccc2[nH]c3c(c2c1)CCCC3 (configuration not stated) | – | inconclusive: 22.4 µM [inhibitor, partial curve] |
